Measurements reported in the supplement of paper PMC11417369.
± gives the standard deviation of the averaged measurements. This is one part of the list.

Each sequence was assayed on PfAP2-LT AP2 domain (GST-tagged) (assay: gcPBM binding intensity (ln(normalized median fluorescence intensity)); higher = stronger DNA binding).
Method in brief: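 Alexa488 anti-GST antibody, scanned at 488 nm, detected GST-tagged P. falciparum DNA-binding domains that had been expressed in E. coli and incubated for 1 h on an Agilent 4 × 180k array. The array carried primer-extended double-stranded 36-bp intergenic genomic probes and negative controls. Binding intensity is the highest Masliner-normalised natural-log median intensity across replicate spots of either orientation of each probe.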

| Sequence | gcPBM binding intensity (ln) |
| --- | --- |
| TTTTAAAAAGATCATTAAAAAAAAAAAAAGAACAAA [CACACA_negctrl_site528] | 8.23 ± 0.52 |
| AATAATAAAGATCAATGTACATAATAAAAAAAAAAA [XGTACX_site2692] | 8.84 ± 0.5 |
| TATCATGGGTGTATTTCACACACGGATAATCATTTA [CACACA_site8211] | 9.06 ± 0.4 |
| AATGTTTATTAACATTGTACTTATAATATGTCACAA [XGTACX_site2974] | 8.62 ± 0.41 |
| AAACAACATATATTAATATGTACATATATATAGATA [GTGCAC_negctrl_site229] | 8.94 ± 0.43 |
| AATAATTGTTAAAGCTGTACAATACTTATATAAGAA [XGTACX_site5729] | 8.77 ± 0.45 |
| TTTTTATTGTTATAGTTATAATATATTATTTGATTA [XGTACX_negctrl_site27] | 8.61 ± 0.42 |
| TTTTTTTTTTTTGTAACACACAATAATATAACATTA [CACACA_site3411] | 8.62 ± 0.5 |
| TTATTAAGTAAATCACATTTAATTTTTTTTTTTTTT [CACACA_negctrl_site1280] | 8.2 ± 0.4 |
| CACATATAAATATTAACACACATAATGAGTTATATA [CACACA_site7316] | 8.89 ± 0.41 |
| AAGAAAAAAAAAAAAAGTACATGCAATATGGATCTT [XGTACX_site3106] | 8.93 ± 0.42 |
| TTATACCATATTTATAGTACGTACAAATAAATCAAT [XGTACX_site4975] | 8.72 ± 0.28 |
| CATATATAACAATTCTCACACATAAAAAAAAAAAAT [CACACA_site4564] | 8.85 ± 0.52 |
| ATAAAATGATAAATTTGTACACAAAAAAAAAAAAAA [XGTACX_site964] | 8.71 ± 0.47 |
| AAAATAAAATATTTCTGTACTTATAACTATTCTATA [XGTACX_site8007] | 8.58 ± 0.38 |
| GGGTATACAAATAAACGTACAAACTCATAAAAAAAA [XGTACX_site3191] | 8.87 ± 0.52 |
| ATTTACATAAATTGCATATATCGATGTAAATAAATA [CACACA_negctrl_site1150] | 8.66 ± 0.4 |
| TCTTTTTAAACTAATAGTACATATATATTAATAAAT [XGTACX_site4217] | 8.34 ± 0.48 |
| ATATATATATATATATGTACATATATTTATTTATTG [XGTACX_site6267] | 9.49 ± 0.11 |

| Sequence | gcPBM binding intensity (ln) |
| --- | --- |
| CATTTATTTTTGTTCTGTACATAAAGATGAACAAAA [XGTACX_site6797] | 8.25 ± 0.31 |
| TTAAAAAAATATAATACACACCAAAAATATGCACAT [CACACA_site5209] | 9.03 ± 0.38 |
| TAATAATTTATAATAGTGCATTTGATTTTAAAAATA | 8.26 ± 0.47 |
| TTTTTATGGTAAATAAAAATATCTCCCTCCTTAATT [CACACA_negctrl_site1352] | 8.47 ± 0.25 |
| CATATAAAAATGTGCACACACACACCCATATATATT [CACACA_site1526] | 9.95 ± 0.14 |
| AAAATTAATAAATAAACACACATATATATATATATA [CACACA_site2598] | 9.61 ± 0.22 |
| AATATCCACATTAGGAGTACACAGCTAACTGTTTGA [XGTACX_site3357] | 8.82 ± 0.35 |
| TTGATTACACTGAAGTGTACATATATATATATATAT [XGTACX_site3532] | 9.755 ± 0.092 |
| AAATAATAAAAAAAATGTACACGTAAATATTATATT [XGTACX_site8125] | 8.89 ± 0.43 |
| AAAAAAAAAAGAAACACACACATTTGTATATAATAT [CACACA_site2078] | 9.31 ± 0.4 |
| TTTTATATAAAATCGTGTACATACCATTTCCTATTA [XGTACX_site5159] | 8.69 ± 0.5 |
| AAATAAATCTTATGCACACAAATAATTAATTAAACA [CACACA_site1693] | 8.88 ± 0.46 |
| TATTTTTTTCTTACATACTAATTTGGTACTCACATA [TGCATGCA_negctrl_site81] | 8.74 ± 0.51 |
| AGAGTTCTCATATGCACACAAAAAACTTTCATTTAT [CACACA_site45] | 8.9 ± 0.33 |
| TAAATAAGCACATACACACATACATACATACATAAA [CACACA_site4017] | 9.44 ± 0.38 |
| AACCCCGTGGAAATATGTACATATAAATATATAAAT [XGTACX_site2094] | 9.18 ± 0.43 |
| GTGAAATATGCAAACACACACGAGAAAAATGTATAT [CACACA_site7488] | 9.61 ± 0.38 |
| TTTTTGCCATATTACACACACACATGTAAACCCCCT [CACACA_site1647] | 9.87 ± 0.099 |
| CAAAACAAAACGTATGCACACAATTAATATATTAAA [CACACA_site3405] | 9.1 ± 0.37 |

| Sequence | gcPBM binding intensity (ln) |
| --- | --- |
| ATAAATAAGATATATACACACATATCTATACATATT [CACACA_site6369] | 8.99 ± 0.37 |
| AATCCACTTTTTTATGTTATACAATATAAATTAAAT [XGTACX_negctrl_site446] | 8.48 ± 0.32 |
| GGCTAAAAGGGGCACACACACAAAAAAAAAAAAAAA [CACACA_site3288] | 9.52 ± 0.72 |
| ATTTAAGAAAAAAGTTGTACTTATTTATTTTTATTT [XGTACX_site5561] | 8.45 ± 0.59 |
| ATATATTATTTCTAGTGTACATACCCATATATAATA [XGTACX_site8902] | 8.77 ± 0.47 |
| TAGATAAACAAGAAATGTACAAACGTAAATATGTTC [XGTACX_site2373] | 9.11 ± 0.45 |
| ATTGAATTCCAACTGGTGCACCAGTAAGATTGAAAA [GTGCAC_site9895] | 8.59 ± 0.47 |
| ATATTTTTTTTTTCGTGTACGCATAAATATATCTAA [XGTACX_site3360] | 8.69 ± 0.45 |
| TAAAAAATAAATATATGTACATATTTATTTTTTTTT [XGTACX_site850] | 8.38 ± 0.49 |
| AAATTCATAAAAATATTTTATAATTATATATAGAAT [TGCATGCA_negctrl_site343] | 8.35 ± 0.5 |
| GGGTTTTTTATTAATACATGCATGGAAACGCACTAT [TGCATGCA_site1000] | 9.05 ± 0.27 |
| AAGAAAAACAATGAGATAAAGAAGAGAAAATATGTC [TGCATGCA_negctrl_site415] | 9.08 ± 0.59 |
| ATATATATATAATTTGTACACACAAATATGCATATA [CACACA_site9136] | 9.04 ± 0.35 |
| ATAAATATGTAAAAAACATGCAAAAAATTAAAGACA [TGCATGCA_site912] | 9.11 ± 0.48 |
| AACGCACATATATTTATGTATATATATATATATATA [GTGCAC_negctrl_site478] | 9.88 ± 0.42 |
| GGAAACAAAAAATATATACACACTAAACATAAAAAA [CACACA_site20] | 9.11 ± 0.52 |
| TCATAGTAGAAACACACACACACACCCATATATATA [CACACA_site1737] | 10.1 ± 0.23 |
| TAAAAAAAAAGAAGCTGTACTAAAAAATTTATATTA [XGTACX_site7408] | 8.34 ± 0.57 |
